Assay results reported in the supplement of paper PMC4604168 (melanoma cell lines).
This is one part of the list. Most values come without repeats; read them as rough.

Tested on: RPMI7951
Test: cell count relative to DMSO control; melanoma cells; higher = more viable cells
Settings: library dose: low library concentration; 72 h
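Note: cell number obtained by counting DAPI-stained nuclei in high-throughput microscope images with image analysis software, screen run in 1,536-well plates.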

| Structure (SMILES) | cell count [%] |
| --- | --- |
| C[C@]1(O)C[C@@H](c2nc(-c3ccc4ccc(-c5ccccc5)nc4c3)c3c(N)nccn32)C1 + CN(NC(=O)CC(=O)NN(C)C(=S)c1ccccc1)C(=S)c1ccccc1 [STA4783] (first compound 0.4 µM, partner dose 0.006 µM) | 123 |
| C[C@]1(O)C[C@@H](c2nc(-c3ccc4ccc(-c5ccccc5)nc4c3)c3c(N)nccn32)C1 + NCC(=O)Nc1ccc(-n2nc(C(F)(F)F)cc2-c2ccc3c(ccc4ccccc43)c2)cc1 [OSU03012] (first compound 0.4 µM, partner dose 1 µM) | 111 |
| CCN(CC)CCNC(=O)c1c(C)[nH]c(/C=C2\C(=O)Nc3ccc(F)cc32)c1C [sunitinib] + Oc1nc(-c2ccc(C(F)(F)F)cc2)nc2c1CSCC2 [XAV939] (first compound 0.4 µM, partner dose 2 µM) | 106 |
| C[C@]1(O)C[C@@H](c2nc(-c3ccc4ccc(-c5ccccc5)nc4c3)c3c(N)nccn32)C1 + CC(C)CCN1c2nc(Nc3cc(F)c(O)c(F)c3)ncc2N(C)C(=O)C1C [BID1870] (first compound 0.4 µM, partner dose 0.2 µM) | 92.7 |
| CCN(CC)CCNC(=O)c1c(C)[nH]c(/C=C2\C(=O)Nc3ccc(F)cc32)c1C [sunitinib] + COc1cc(N2CCC(N3CCN(C)CC3)CC2)ccc1Nc1ncc(Cl)c(Nc2ccccc2S(=O)(=O)C(C)C)n1 [NVP-TAE684] (first compound 0.4 µM, partner dose 0.08 µM) | 88.8 |
| CCN(CC)CCNC(=O)c1c(C)[nH]c(/C=C2\C(=O)Nc3ccc(F)cc32)c1C [sunitinib] + CCc1ccc(CCOc2ccc(CC3SC(=O)NC3=O)cc2)nc1 [pioglitazone] (first compound 0.4 µM, partner dose 2 µM) | 110 |
| C[C@]1(O)C[C@@H](c2nc(-c3ccc4ccc(-c5ccccc5)nc4c3)c3c(N)nccn32)C1 + NC(=O)Nc1cc(-c2cccc(F)c2)sc1C(=O)N[C@H]1CCCNC1 [AZD7762] (first compound 0.4 µM, partner dose 0.02 µM) | 99.6 |
| C[C@]1(O)C[C@@H](c2nc(-c3ccc4ccc(-c5ccccc5)nc4c3)c3c(N)nccn32)C1 + c1cc(-c2cnn3cc(-c4ccc(OCCN5CCCCC5)cc4)cnc23)ccn1 [Dorsomorphin] (first compound 0.4 µM, partner dose 0.4 µM) | 102 |
| COc1cc([C@@H]2c3cc4c(cc3[C@@H](O[C@@H]3O[C@@H]5CO[C@@H](C)O[C@H]5[C@H](O)[C@H]3O)[C@H]3COC(=O)[C@H]23)OCO4)cc(OC)c1O [etoposide] + COc1cc(N2CCC(N3CCN(C)CC3)CC2)ccc1Nc1ncc(Cl)c(Nc2ccccc2S(=O)(=O)C(C)C)n1 [NVP-TAE684] (first compound 0.02 µM, partner dose 0.08 µM) | 101 |
| CCN(CC)CCNC(=O)c1c(C)[nH]c(/C=C2\C(=O)Nc3ccc(F)cc32)c1C [sunitinib] + CCCCCCCCCCCC1=C(O)C(=O)C=C(O)C1=O [Embelin] (first compound 0.4 µM, partner dose 1.2 µM) | 118 |
| Cn1cnc2c(F)c(Nc3ccc(Br)cc3Cl)c(C(=O)NOCCO)cc21 [selumetinib] + CO[C@@H]1[C@H](N(C)C(=O)c2ccccc2)C[C@H]2O[C@]1(C)n1c3ccccc3c3c4c(c5c6ccccc6n2c5c31)C(=O)NC4 [Midostaurin] (first compound 0.015 µM, partner dose 0.08 µM) | 106 |
| COc1cc([C@@H]2c3cc4c(cc3[C@@H](O[C@@H]3O[C@@H]5CO[C@@H](C)O[C@H]5[C@H](O)[C@H]3O)[C@H]3COC(=O)[C@H]23)OCO4)cc(OC)c1O [etoposide] + NC(=O)Nc1cc(-c2cccc(F)c2)sc1C(=O)N[C@H]1CCCNC1 [AZD7762] (first compound 0.02 µM, partner dose 0.02 µM) | 84 |
| Cn1cnc2c(F)c(Nc3ccc(Br)cc3Cl)c(C(=O)NOCCO)cc21 [selumetinib] + Oc1nc(-c2ccc(C(F)(F)F)cc2)nc2c1CSCC2 [XAV939] (first compound 0.015 µM, partner dose 2 µM) | 90 |
| CCN(CC)CCNC(=O)c1c(C)[nH]c(/C=C2\C(=O)Nc3ccc(F)cc32)c1C [sunitinib] + NC(=O)Nc1cc(-c2cccc(F)c2)sc1C(=O)N[C@H]1CCCNC1 [AZD7762] (first compound 0.4 µM, partner dose 0.02 µM) | 91.3 |
| C[C@]1(O)C[C@@H](c2nc(-c3ccc4ccc(-c5ccccc5)nc4c3)c3c(N)nccn32)C1 + O=S(=O)(c1ccccc1)N(CC(F)(F)F)c1ccc(C(O)(C(F)(F)F)C(F)(F)F)cc1 [T0901317] (first compound 0.4 µM, partner dose 1.4 µM) | 88.9 |
| CCN(CC)CCNC(=O)c1c(C)[nH]c(/C=C2\C(=O)Nc3ccc(F)cc32)c1C [sunitinib] + COc1cc(Nc2ncc(F)c(Nc3ccc4c(n3)NC(=O)C(C)(C)O4)n2)cc(OC)c1OC [Tamatinib] (first compound 0.4 µM, partner dose 0.4 µM) | 94.6 |
| C[C@]1(O)C[C@@H](c2nc(-c3ccc4ccc(-c5ccccc5)nc4c3)c3c(N)nccn32)C1 + COc1cc2c(Oc3ccc4[nH]c(C)cc4c3F)ncnc2cc1OCCCN1CCCC1 [cediranib] (first compound 0.4 µM, partner dose 0.4 µM) | 133 |
| C[C@]1(O)C[C@@H](c2nc(-c3ccc4ccc(-c5ccccc5)nc4c3)c3c(N)nccn32)C1 + COc1cc2ncnc(Nc3ccc(Oc4ccccc4)cc3)c2cc1OC [SrcI1] (first compound 0.4 µM, partner dose 2 µM) | 106 |
| CCN(CC)CCNC(=O)c1c(C)[nH]c(/C=C2\C(=O)Nc3ccc(F)cc32)c1C [sunitinib] + OCCn1cc(-c2cnc3nnn(Cc4ccc5ncccc5c4)c3n2)cn1 [PF04217903] (first compound 0.4 µM, partner dose 1 µM) | 108 |
| Cn1cnc2c(F)c(Nc3ccc(Br)cc3Cl)c(C(=O)NOCCO)cc21 [selumetinib] + N#Cc1c(O)c2c(-c3ccc(-c4ccccc4O)cc3)csc2[nH]c1=O [A769662] (first compound 0.015 µM, partner dose 2 µM) | 102 |
| Cn1cnc2c(F)c(Nc3ccc(Br)cc3Cl)c(C(=O)NOCCO)cc21 [selumetinib] + c1cc(-c2cnn3cc(-c4ccc(OCCN5CCCCC5)cc4)cnc23)ccn1 [Dorsomorphin] (first compound 0.015 µM, partner dose 0.4 µM) | 98.9 |
| CCN(CC)CCNC(=O)c1c(C)[nH]c(/C=C2\C(=O)Nc3ccc(F)cc32)c1C [sunitinib] + CC(C)CCN1c2nc(Nc3cc(F)c(O)c(F)c3)ncc2N(C)C(=O)C1C [BID1870] (first compound 0.4 µM, partner dose 0.2 µM) | 94.7 |
| COc1cc([C@@H]2c3cc4c(cc3[C@@H](O[C@@H]3O[C@@H]5CO[C@@H](C)O[C@H]5[C@H](O)[C@H]3O)[C@H]3COC(=O)[C@H]23)OCO4)cc(OC)c1O [etoposide] + COc1ccc(COc2ccc(Cc3cnc(N)nc3N)cc2OC)cc1 [GW2580] (first compound 0.02 µM, partner dose 1 µM) | 97.7 |
| Cn1cnc2c(F)c(Nc3ccc(Br)cc3Cl)c(C(=O)NOCCO)cc21 [selumetinib] + NCC(=O)Nc1ccc(-n2nc(C(F)(F)F)cc2-c2ccc3c(ccc4ccccc43)c2)cc1 [OSU03012] (first compound 0.015 µM, partner dose 1 µM) | 116 |
| COc1cc([C@@H]2c3cc4c(cc3[C@@H](O[C@@H]3O[C@@H]5CO[C@@H](C)O[C@H]5[C@H](O)[C@H]3O)[C@H]3COC(=O)[C@H]23)OCO4)cc(OC)c1O [etoposide] + O=C(CCCCCCC(=O)Nc1ccccc1)NO [vorinostat] (first compound 0.02 µM, partner dose 0.08 µM) | 97.7 |
| C[C@]1(O)C[C@@H](c2nc(-c3ccc4ccc(-c5ccccc5)nc4c3)c3c(N)nccn32)C1 + CO[C@@H]1[C@H](N(C)C(=O)c2ccccc2)C[C@H]2O[C@]1(C)n1c3ccccc3c3c4c(c5c6ccccc6n2c5c31)C(=O)NC4 [Midostaurin] (first compound 0.4 µM, partner dose 0.08 µM) | 104 |
| CCN(CC)CCNC(=O)c1c(C)[nH]c(/C=C2\C(=O)Nc3ccc(F)cc32)c1C [sunitinib] + C[C@@H]1CCN(C(=O)CC#N)C[C@@H]1N(C)c1ncnc2[nH]ccc12 [CP690550] (first compound 0.4 µM, partner dose 1 µM) | 103 |
| Cn1cnc2c(F)c(Nc3ccc(Br)cc3Cl)c(C(=O)NOCCO)cc21 [selumetinib] + CCc1ccc(CCOc2ccc(CC3SC(=O)NC3=O)cc2)nc1 [pioglitazone] (first compound 0.015 µM, partner dose 2 µM) | 101 |
| C[C@]1(O)C[C@@H](c2nc(-c3ccc4ccc(-c5ccccc5)nc4c3)c3c(N)nccn32)C1 + CCN(CC)CCCCNc1ncc2cc(-c3cc(OC)cc(OC)c3)c(NC(=O)NC(C)(C)C)nc2n1 [PD173074] (first compound 0.4 µM, partner dose 0.1 µM) | 90.2 |
